Experimental data as given in the supplement of paper PMC8291772.
± gives the standard error. The list shows a part of the results.

biological target: terminal deoxynucleotidyl transferase (calf thymus) (UniProt P06526); experiment: TdT poly-dT extension signal (Cy3 hybridisation fluorescence, uncapped minus capped) (fluorescence a.u.); higher = more efficient initiation of TdT extension; conditions: initiator chemistry: L-DNA (mirror-image), free 5'-OH (3'-tethered via HEG linker)
Description: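 All mono- to pentamer D-DNA or L-DNA initiators were made by forward (3'->5') photolithographic in situ synthesis on glass on a hexaethylene glycol linker, leaving a free 5'-OH. Each was made in uncapped and DMTr-dT-capped versions, about 11 replicates each. Arrays were extended with calf thymus TdT (0.2 U/uL), 100 uM dTTP and 0.25 mM CoCl2 for 120 min at 37 C, hybridised with an rA18-Cy3 probe and scanned at 532 nm. The value is the mean uncapped minus the mean capped signal. IDs read 5'->3'. L-DNA is mirror-image; D-DNA 5'-OH initiators were below LOD (no extension).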

Sequence of UniProt P06526 (P06526 whole entry): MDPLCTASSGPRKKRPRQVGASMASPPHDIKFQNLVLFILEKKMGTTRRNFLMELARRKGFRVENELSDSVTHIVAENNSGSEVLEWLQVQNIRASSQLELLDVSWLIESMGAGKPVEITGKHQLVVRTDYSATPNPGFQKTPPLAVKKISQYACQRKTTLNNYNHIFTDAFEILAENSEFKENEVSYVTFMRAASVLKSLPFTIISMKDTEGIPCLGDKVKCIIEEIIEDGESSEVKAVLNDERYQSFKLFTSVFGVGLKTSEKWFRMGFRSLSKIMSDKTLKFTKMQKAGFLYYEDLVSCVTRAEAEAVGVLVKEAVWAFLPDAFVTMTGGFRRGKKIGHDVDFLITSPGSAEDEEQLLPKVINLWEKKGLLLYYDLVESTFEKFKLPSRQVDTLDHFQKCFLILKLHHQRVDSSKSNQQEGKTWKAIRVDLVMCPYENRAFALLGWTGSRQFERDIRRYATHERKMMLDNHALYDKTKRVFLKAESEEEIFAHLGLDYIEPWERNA

Point of comparison: GCGCT, “TdT poly-dT extension signal” value 57.5 ± 4.6. Against it:
- GCTTG — within error, 59.7 ± 8.3
- TATTA — higher, 196 ± 11
- GTGTT — higher, 100 ± 8.2
- ACAAG — higher, 96.1 ± 7.5
- CCGTC — within error, 48.6 ± 6.6
- ACGC — within error, 55.8 ± 9.1
- GCTGA — higher, 75.3 ± 5.4
- GTTT — higher, 122 ± 11
- ATTGG — higher, 180 ± 13
- TGGGT — higher, 105 ± 9.8
- AGTGA — within error, 57.2 ± 5.7
- ATAG — higher, 163 ± 22
- GAGCA — within error, 59 ± 5.4
- AGCC — within error, 46.8 ± 7.6
- GCCCG — higher, 83.6 ± 6.6
- ACTCG — within error, 65.5 ± 6.4
- GTTAG — higher, 158 ± 11
- CACG — the same, 57.5 ± 7.7
- TACTT — higher, 154 ± 10
- TGACA — higher, 165 ± 8.2
- TATGC — higher, 148 ± 11
- ACTTG — higher, 74.5 ± 4.6
- AGAAG — within error, 68.4 ± 6.8
- GAGAG — within error, 60.9 ± 4.4
- CATGT — within error, 61.4 ± 5.1
- ATTCT — higher, 136 ± 8.1
- TAACG — higher, 195 ± 11
- ATTT — higher, 160 ± 15
- CTGAG — higher, 130 ± 11
- CTGAC — higher, 128 ± 9.9
- TCTG — higher, 146 ± 9.6
- AAGAG — within error, 61.4 ± 6.7
- TCAGA — higher, 192 ± 8.6
- GGGCA — within error, 50.3 ± 7.4
- GTAGC — higher, 160 ± 11
- CCTTT — within error, 53 ± 6.8
- GAGCC — within error, 63.7 ± 6.2
- ACCGG — higher, 103 ± 8.1
- TTGCT — higher, 229 ± 24
- ACGTA — within error, 54.2 ± 7.7
- ATCA — higher, 174 ± 13
- CTCCC — higher, 112 ± 10
- AGGTA — lower, 30.3 ± 2.8
- ACGCA — within error, 49.9 ± 5.1
- ACTT — higher, 68.9 ± 6.1
- AAACA — higher, 85.8 ± 6.2
- TGAGG — higher, 138 ± 12
- TGGCG — higher, 108 ± 11
- TAGAG — higher, 129 ± 13
- AAGAA — within error, 62 ± 6.3
- GTTAC — higher, 130 ± 11
- GAGTT — lower, 40.6 ± 5.8
- CCTAT — higher, 92.3 ± 5.7
- CCTCC — higher, 74.1 ± 8.8
- CAAGA — higher, 81.3 ± 4.5
- ACGTT — within error, 49.6 ± 7
- GCTT — within error, 64.4 ± 4.5
- CTCG — higher, 124 ± 17
- CAACC — higher, 78.5 ± 6.7
- CTAAG — higher, 215 ± 13
- GGTAA — within error, 63.1 ± 7.8
- TAGG — higher, 117 ± 11
- TGCAA — higher, 135 ± 11
- CCTAC — within error, 65.1 ± 9.5
- ACTCT — within error, 59.7 ± 8.8
- GTGC — higher, 88.4 ± 10
- TAGCA — higher, 110 ± 6.3
- CCGCG — higher, 87.7 ± 5.1
- GATAA — higher, 105 ± 12
- GTAGT — higher, 130 ± 11
- AGTTA — lower, 36.8 ± 4.9
- TTGTA — higher, 245 ± 16
- GCAA — higher, 72.9 ± 6
- TCAC — higher, 167 ± 17
- ATGA — higher, 143 ± 10
- CGCT — lower, 42.9 ± 7.5
- GATGA — higher, 75.2 ± 7.2
- TTCTA — higher, 312 ± 31
- AGAT — higher, 74.9 ± 6
- ACCCT — within error, 51.4 ± 7.5
- TCGCA — higher, 149 ± 9.5
- GGTT — within error, 50.9 ± 5.2
- TCTTG — higher, 143 ± 14
- TCGAA — higher, 187 ± 8.6
- CGACT — within error, 63.7 ± 5.4
- AGGCG — within error, 46.6 ± 6.6
- GTTCT — higher, 130 ± 18
- CTGAT — higher, 127 ± 9.7
- AGCGC — within error, 57.8 ± 6.1
- CTAAC — higher, 201 ± 14
- GTCGT — higher, 133 ± 4.9
- GGTCA — lower, 40.5 ± 5.1
- CCAGT — higher, 88.1 ± 7.4
- AGCGG — higher, 74.6 ± 6.3
- GTAC — higher, 144 ± 18
- TGCGA — higher, 157 ± 7.9
- CCATG — higher, 100 ± 8.1
- ATCGC — higher, 174 ± 6.9
- GCCAA — higher, 111 ± 10
- GAACA — higher, 87.7 ± 5.5
- GAATC — higher, 80.3 ± 5.6
- AGCA — within error, 47.1 ± 6
- GATCT — higher, 70.7 ± 5.6
- TGAG — higher, 154 ± 13
- TACGT — higher, 180 ± 15
- CGCTG — within error, 56.2 ± 6
- CTCTT — higher, 122 ± 10
